# From paper PMC6919601, “Identification of Plasmodium dipeptidyl aminopeptidase allosteric inhibitors by high throughput screening” (PLoS ONE, 2019)
# Out of some 110,000 compounds screened, about 230 (0.21%) showed an effect of 50% or more. This is one part of the list.
# Molecular target: DPAP1 (Plasmodium falciparum, UniProt Q8IIJ9)
# Assay: primary screen, percent inhibition; read by cleavage of a fluorogenic dipeptide substrate; higher = more effect of the substance
# Design: species or system P. falciparum D10 trophozoite lysates; single well
# 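Note: 30 min substrate incubation versus DMSO and 10 µM JCP410 controls.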
# Sequence of DPAP1 (Q8IIJ9 whole entry, looked up): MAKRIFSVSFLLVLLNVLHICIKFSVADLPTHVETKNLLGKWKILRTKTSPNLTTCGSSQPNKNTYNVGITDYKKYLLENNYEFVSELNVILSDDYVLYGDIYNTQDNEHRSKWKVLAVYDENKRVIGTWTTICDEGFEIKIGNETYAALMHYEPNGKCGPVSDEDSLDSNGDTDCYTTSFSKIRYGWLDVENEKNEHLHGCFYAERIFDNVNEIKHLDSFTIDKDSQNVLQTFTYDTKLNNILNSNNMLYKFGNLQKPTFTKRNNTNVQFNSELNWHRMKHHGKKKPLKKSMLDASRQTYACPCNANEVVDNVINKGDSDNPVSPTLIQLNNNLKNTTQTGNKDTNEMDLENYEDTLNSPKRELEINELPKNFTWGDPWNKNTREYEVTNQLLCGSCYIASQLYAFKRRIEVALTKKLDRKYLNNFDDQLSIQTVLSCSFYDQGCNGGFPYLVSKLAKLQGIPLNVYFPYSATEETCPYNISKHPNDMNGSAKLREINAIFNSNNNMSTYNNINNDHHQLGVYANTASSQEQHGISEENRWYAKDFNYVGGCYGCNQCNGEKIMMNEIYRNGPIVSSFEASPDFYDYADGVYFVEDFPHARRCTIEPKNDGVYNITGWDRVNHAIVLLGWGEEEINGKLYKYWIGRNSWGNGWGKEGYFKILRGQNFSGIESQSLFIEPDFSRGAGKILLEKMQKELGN
row,Structure (SMILES),% Inhibition @ 10 uM [%]
1,CCCCN(C)C(=O)Cn1ncc2c(C)n(Cc3ccc(C)cc3)c(C)c2c1=O,-2.17
2,COc1ccc(C2=N/C(=C\c3ccccc3OC)C(=O)O2)c(Cl)c1,-3.81
3,COc1cc(OC)c(CN2CCCCC2CO)cc1Br (stereo not shown),3.95
4,CCNC(=O)/C(=C\C=C\c1ccccc1)NC(=O)c1ccc(Br)o1,-2.68
5,CCC(C(=O)N1CCC2(CC1)OCCO2)n1nc(C)c2c(C)n(-c3ccc(C)cc3)nc2c1=O (stereo not shown),-6.93
6,CC1CCc2nn(CC(=O)NCCN3CCOCC3)cc2C1 (stereo not shown),-5.19
7,COc1cccc(C(=O)C2=C(O)C(=O)N(c3cc(C)on3)C2c2ccc(C(C)(C)C)cc2)c1 (stereo not shown),7.97
8,CC[n+]1cn(CC(O)COCc2ccccc2)c2ccccc21 (stereo not shown),-1.6
9,COc1ccc2nc(NC3=NC(=O)CC(C(=O)Nc4ccc(C)cc4)N3)nc(C)c2c1 (stereo not shown),2.64
10,O=C(CC(c1ccccc1)c1cc(Br)ccc1O)NCc1ccco1 (stereo not shown),0.993
11,Cc1nn(C)cc1CNC(=O)c1cnn2c(C(F)F)cc(-c3ccccc3)nc12,-0.958
12,Cc1ccc(C/N=c2/c(-c3ccccc3)c(O)c2=O)cc1,3.31
13,COc1ccc(-c2cc(C(F)(F)F)nc(SCC(=O)NCc3cnn(C)c3C)n2)cc1OC,16.6
14,Cc1ccc2c(n1)sc1c(=O)oc(C)nc12,-1.85
15,CC(=O)N1N=C(c2ccccc2)CC1c1ccc(Br)cc1 (stereo not shown),0.512
16,O=C(C1CCC(CNS(=O)(=O)c2ccccc2)CC1)N1CCc2ccccc2C1 (stereo not shown),-4.53
17,COc1ccc(CN(C)S(=O)(=O)c2nnc(NC(=O)c3ccc(C)cc3)s2)cc1OC,-2.14
18,CC(=O)Nc1ccc(OCc2c(C)c(C)c(Br)c(C)c2C)cc1,3.53
19,Cc1nc(N2CCOCC2)c2c3c(sc2n1)CCCC3,3.82
20,CCOC(=O)C1CCN(Cc2ccoc2)CC1,-4.61
21,CCCOCCOC(=O)C1=C(C)NC(=O)CC1c1ccccc1F (stereo not shown),0.8
22,Cc1c(C(=O)N(C)Cc2ccccc2)cccc1[N+](=O)[O-],-1.62
23,O=C1C2C3C=CC(C3)C2C(=O)N1c1nc[nH]n1 (stereo not shown),1.02
24,Cc1cccc(NC(=O)/C=C/c2ccccc2Cl)c1C,-3.94
25,COC(=O)CC(NC(=O)c1ccccc1)c1ccccc1 (stereo not shown),-7.55

row,Structure (SMILES),% Inhibition @ 10 uM [%]
1,COCCN1C(=O)c2oc3ccc(F)cc3c(=O)c2C1c1ccc(O)c(OC)c1 (stereo not shown),0.414
2,CCCCC1CCC(C2CCC(C(=O)O)CC2)CC1 (stereo not shown),4.6
3,CCOc1ccc(C2C(C#N)=C(N)Oc3[nH]nc(C)c32)c(OCC)c1 (stereo not shown),1.57
4,CCN1C=C(Cc2ccc(OC)cc2)C2=C(C1)C(c1ccc(OC)cc1)C(C#N)=C(N)O2 (stereo not shown),-6.35
5,Cc1c(C#N)c(=O)ncn1-c1ccc(Br)cc1,6.08
6,N#CC1=C(N)Oc2c(oc(CO)cc2=O)C1c1ccc(Cl)cc1 (stereo not shown),0.628
7,C/C(=C\c1ccccc1)CN1CCN(c2ccc([N+](=O)[O-])cc2)CC1,-5.42
8,COc1ccc(-c2cs/c(=N\c3cccc(C)c3)n2CCO)cc1,-7.23
9,O=C(NCc1ccc(Cl)cc1)C1CCCN(S(=O)(=O)N2CCCCCC2)C1 (stereo not shown),-3.5
10,O=C(CSc1nc2ncccc2o1)NCC1CCCO1 (stereo not shown),1.3
11,Cc1cc(C)c(C#N)c(SCC(=O)n2nc(C)cc2C)n1,6.42
12,CCCCNS(=O)(=O)c1ccc2c(c1)C(=O)c1ccccc1C2=O,2.24
13,O=C(Nc1nc2ccccc2s1)c1c(F)cccc1Cl,2.44
14,CCN(CC)C(=O)/C(=C/c1ccccc1Cl)NC(=O)c1ccc(C)cc1,2.58
15,Nc1cc(/C=C/C(=O)O)ccc1C(=O)O,31.7
16,CN(C)c1ccc(Nc2nc(-c3ccc(Br)cc3)cs2)cc1,-7.8
17,COc1ccc(CNC(=O)c2cnn3c2NC(c2ccc(OC)c(OC)c2)CC3C(F)(F)F)cc1 (stereo not shown),-1.88
18,CN(Cc1ccccc1)c1oc(/C=C/c2ccc(F)cc2)nc1C#N,2.54
19,CCOC(=O)c1[nH]c(C)c(C(=O)c2cc(F)ccc2F)c1C,-0.268
20,CC(C)Oc1ccc(CNC(=O)C2CCCN(S(=O)(=O)N(C)C3CCCCC3)C2)cc1 (stereo not shown),-4.41
21,CN1CCN(c2ncccc2S(=O)(=O)N2CCCCC2)CC1,-7.62
22,CCSc1nnc(NC(=O)C2CCCN2S(=O)(=O)c2cccc3nsnc23)s1 (stereo not shown),-0.465
23,COc1ccc(NC(=O)c2cc(F)c(Cl)nc2Cl)cc1,3.53
24,CCN(C(=O)c1cc(OC)cc(OC)c1)c1nc(-c2ccc(Br)cc2)cs1,7.31
25,O=C1NC(=O)C(=Cc2ccccc2[N+](=O)[O-])C(=O)N1,3.06

row,Structure (SMILES),% Inhibition @ 10 uM [%]
1,CCOc1ccc(-c2cc(-c3nc4c5c(C)c(C)oc5ncn4n3)[nH]n2)cc1,-1.34
2,O=C1NC(=O)/C(=C\c2cc(Cl)c(OCc3ccc(F)cc3)c(Cl)c2)N1,5.37
3,Cc1cccc(NC(=O)c2ccc(COc3ccc(F)cc3)o2)c1,-7.98
4,O=C(CNC1CCCCC1)N1c2ccccc2C=Cc2ccccc21,4.52
5,Cc1ccc2oc(=O)c3cnn(CC(=O)Nc4ccc(Cl)cn4)c3c2c1,-1.7
6,Fc1ccc(CN2CCc3c([nH]c4ccccc34)C2)c(F)c1,4.57
7,CSCCC1C(C#N)=C(N)Oc2[nH]nc(-c3ccccc3Cl)c21 (stereo not shown),4.09
8,Cc1ccccc1OCC(=O)N1CCOCC1,-3.23
9,O=S(=O)(Nc1ccccc1Br)c1ccc(Cl)cc1,-2
10,C=C(C)C[C@H](NC(=O)OCc1ccccc1)C(=O)NCC#N,-3.49
11,CC1CCCCN1CCNC(=O)c1ccc(CS(=O)(=O)Cc2ccc(Cl)cc2)o1 (stereo not shown),-6.88
12,CC(C)CCN1C(=O)c2ccc(C(=O)O)cc2C1=O,-0.0626
13,Cc1ccc(NC(=O)c2cccc(S(=O)(=O)N3CCOCC3)c2)cc1,6
14,Cc1ccc2c(cnn2C(=O)CCC(=O)NCCc2ccccc2)c1,-2.88
15,CCOc1ccc2c(c1)OC1(C)CC2/C(=C(\C)O)C(=O)N1 (stereo not shown),9.62
16,Cc1ccc2c(c1)C1(Nc3ccccc3C(=O)N1CCc1ccccc1)C(=O)N2 (stereo not shown),1.49
17,CCOC(=O)c1c(C)oc2cc(Br)c(OCc3ccccc3)cc12,1.37
18,O=c1c2nccnc2nc(SCc2ccccc2Cl)n1Cc1ccccc1,1.39
19,C=CCNC(=O)C1CC=CCC1C(=O)Nc1cccc([N+](=O)[O-])c1 (stereo not shown),-0.0217
20,COc1ccc(CN2CCN(Cc3ccc(C(F)(F)F)cc3)CC2)c(OC)c1OC,0.214
21,CN1C(c2ccccc2)CC(O)(C#Cc2ccccc2)CC1c1ccccc1 (stereo not shown),2.05
22,CC(C)c1nc2ccccc2n1C(=O)c1ccccc1C(=O)O,1.42
23,Cc1ccc(-c2csc(NC(=O)C(F)(F)F)n2)c(C)c1,-4.69
24,CN1CCN(C(=O)c2ccc3nc(-c4ccc(F)cc4)c(-c4ccc(F)cc4)nc3c2)CC1,-3.26
25,c1ccc(-c2nc3c(c(-c4ccccc4)n2)CCCC3)cc1,3.54

row,Structure (SMILES),% Inhibition @ 10 uM [%]
1,CCOc1cc(/C=C2/C(=N)N3OC(C)=CC3=NC2=O)ccc1O,0.317
2,CCN(CC)CCCNS(=O)(=O)c1cc(-c2onc(C)c2C)ccc1OC,0.359
3,CCOC(=O)c1cnc2ccccc2c1NCCCN1CCOCC1,-4.7
4,Cn1c(CSCc2ccccc2)c(C#N)c2ccccc21,-1.68
5,O=C(O)c1ccc(NC(=O)c2ccc(C(=O)Nc3ccc(C(=O)O)cc3)cc2)cc1,3.32
6,COc1ccc(NC(=O)Cn2nc(C(F)F)cc2C)cc1,5.04
7,CC1=C(c2ccc(C)c(C)c2)S(=O)(=O)N(Cc2ccc(C(=O)NCc3cccs3)cc2)C1=O,-1.6
8,Cc1cccc(C(=O)N(Cc2nc(-c3ccc(Cl)cc3)no2)C(C)C)c1,-0.958
9,COc1ccc(NC(=O)COc2ccccc2C(C)C)c(OC)c1,-0.446
10,O=C(c1ccc2c(Cl)c3c(nc2c1)CCCC3)N1CCC(N2CCCCC2)CC1,-6.89
11,O=C(COc1ccc(Br)cc1)Nc1ccc(CN2CCOCC2)cc1,-2.83
12,CCCCC1=NN(C(=O)c2ccccc2O)C(O)(C(F)(F)F)C1 (stereo not shown),1.82
13,COC(=O)C1=C(C)NC(=O)CC1c1ccc(F)c(Br)c1 (stereo not shown),-1.17
14,O=c1[nH]c(=O)n(CCc2ccccc2)c2c1C(C(F)(F)F)(C(F)(F)F)NC(Cc1ccccc1)=N2,3.87
15,CN(C)CCNC(=O)CCCc1cn(Cc2ccccc2Cl)c2ccccc12,-0.326
16,COc1cccc2c1NC(c1cccc3ccccc13)C1CC=CC21 (stereo not shown),-6.7
17,O=C(NCCCn1ccnc1)c1cc2nc(-c3cccs3)cc(C(F)(F)Cl)n2n1,0.231
18,C=CCOc1ccccc1/C=c1\sc2nc(-c3cc(OC)c(OC)c(OC)c3)nn2c1=O,0.561
19,CN(C)CCCNC(=O)c1c(O)nc2c(c1O)CCCC2,4.35
20,O=C(NCc1ccc(Cl)c(Cl)c1)c1cccnc1,-1.36
21,OC1=C2C(=Nc3ccccc3NC2c2ccsc2)CC(c2ccccc2)C1 (stereo not shown),4.75
22,Cc1c(Cc2ccccc2)sc(NC(=O)c2cccs2)c1C(N)=O,20.9
23,O=C(NCCCCc1ccccc1)c1ccc(F)cc1,-4.87
24,Cc1ccccc1C(=O)Nc1ccc(O)cc1,-3.43
25,O=C(O)C1CC=CCC1C(=O)Nc1nc(-c2ccccc2Cl)cs1 (stereo not shown),-0.865
